The list shows a part of the results. These are further read-outs of the screen, such as a control signal, another cell line or another target. No call is given for them.
Tests used:
Assay in all cases: Primary Screen for Target Class Profiling of Small Molecule Inhibitors of Methyltransferases
[1] = biological target: Glycine N-methyltransferase (Homo sapiens) (UniProt Q14749); settings: purified enzyme, MTase-Glo SAH luminescence; measured here: GNMT inhibition; at 40 µM; stronger effect = lower value
In short: (§1)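 Each enzyme was reacted with SAM and its substrate, with compounds tested once at 40 uM; SAH formed was read by MTase-Glo luminescence.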

[2] = biological target: Guanidinoacetate N-methyltransferase (Homo sapiens) (UniProt Q14353); settings: purified enzyme, MTase-Glo SAH luminescence; measured here: GAMT inhibition; at 40 µM; stronger effect = lower value
In short: as §1

[3] = biological target: Histamine N-methyltransferase (Homo sapiens) (UniProt P50135); settings: purified enzyme, MTase-Glo SAH luminescence; measured here: HNMT inhibition; at 40 µM; stronger effect = lower value
In short: as §1

[4] = biological target: Nicotinamide N-methyltransferase (Homo sapiens) (UniProt P40261); settings: purified enzyme, MTase-Glo SAH luminescence; measured here: NNMT inhibition; at 40 µM; stronger effect = lower value
In short: as §1

[5] = biological target: Phenylethanolamine N-methyltransferase (Homo sapiens) (UniProt P11086); settings: purified enzyme, MTase-Glo SAH luminescence; measured here: PNMT inhibition; at 40 µM; stronger effect = lower value
In short: as §1
% is scaled to controls: 0 for no effect and ±100 for the full control effect.

| SMILES | activity change, negative = inhibition [1] [%] | activity change, negative = inhibition [2] [%] | activity change, negative = inhibition [3] [%] | activity change, negative = inhibition [4] [%] | activity change, negative = inhibition [5] [%] |
| --- | --- | --- | --- | --- | --- |
| CCn1ncc(CN2CCCCCNC(=O)[C@@H]3CCC[C@@H]32)c1C | -5.34 | -0.9 | 1.52 | -5.17 | 7.57 |
| COc1ccc(CC2(CO)CCN(c3nccc(N)n3)CC2)cc1 | -4.25 | -3.13 | -16.2 | -4.59 | 0.95 |
| O=C(Nc1cc(Cl)cc(Cl)c1)c1ccn2nccc2c1 | -7.54 | -4.52 | 0.164 | -12.2 | -5.07 |
| CCc1cccc(NC(=O)[C@@H]2CN(S(C)(=O)=O)C[C@H]2c2ccncc2)c1 | -0.722 | -4.54 | -2.26 | -6.78 | -10.2 |
| Cn1cc(-c2ccncc2)cc1C(=O)N1CCN(c2ccc(F)cc2)CC1 | -9.15 | -2.29 | -9.07 | -9.68 | -11 |
| COc1ccc(CCN2C(=O)c3cc4ccccc4n3CC2(C)C(=O)NCCC(C)C)c(OC)c1 (configuration not stated) | -0.017 | 2.65 | -1.46 | -2.52 | -4.65 |
| Cc1cnc(C(=O)N[C@@H]2CN(C3CCOCC3)C[C@H]2CN(C)C)cn1 | -2.23 | -1.29 | 0.19 | -4.05 | -1.55 |
| O=C(Cn1nc2n(Cc3ccccc3)c(=O)c3ccccc3n2c1=O)Nc1cccc(F)c1 | -1.26 | -0.156 | -0.453 | -5.65 | -3.21 |
| CC(CCc1ccccc1)N1C(=O)c2cc3occc3n2CC1(C)C(=O)NC1CCCCCCC1 (configuration not stated) | -1.38 | 0 | 2.37 | -7.66 | -3.27 |
| O=C(N[C@@H]1CN(Cc2ccncc2F)C[C@H]1CO)C1CC1 | -0.249 | -1.26 | 0.491 | -3.72 | 0.597 |
| CCCC1c2ccc(C)n2CCN1C(=O)Nc1cccc(Cl)c1C (configuration not stated) | 4.01 | -0.392 | -0.527 | 5.37 | -3.2 |
| CC1=C(C)C(=O)OC(C(C)C2CCC3C4CC=C5CC(OC6OC(COC7OC(CO)C(O)C(O)C7O)C(O)C(O)C6O)CC(O)C5(C)C4CCC23C)C1 (configuration not stated) | 0 | 1.47 | 2.9 | -13 | 6.8 |
| CCCN1C(=O)c2c(NC(C)=O)c3ccccc3n2CC1(C)C(=O)NC1CCCC1 (configuration not stated) | -1.17 | 2.64 | -1.22 | 0.946 | 4.06 |
| COc1ccc(N2CCN(C(=O)CCc3nnc4n(CCc5ccccc5)c(=O)c5ccccc5n34)CC2)cc1 | -0.473 | 0 | 4.42 | -21.3 | -0.299 |
| CCOC(=O)c1cc2n(n1)CC(C)(C(=O)NC1CCCCC1)N(c1ccc(C)cc1)C2=O (configuration not stated) | 3.49 | 0 | 8.07 | 9.27 | 4.45 |
| CN1C(=O)N[C@@H](Cc2c[nH]c3c(Cl)cccc23)C1=O | 0.11 | 0.88 | 7.74 | -13.5 | 5.04 |
| CC1(C)CCC2=C(O1)c1ccccc1C(=O)C2=O | -82.2 | -75.2 | -14.1 | -33.7 | -22.5 |
| COc1ccc(NC(=O)CN(C)S(=O)(=O)c2ccc3[nH]c4c(c3c2)CCCC4)cc1 | -4.29 | -0.835 | -8.49 | -8.42 | -6.57 |
| Oc1ccc(-c2ccc(-c3nc(CCc4ccccc4)no3)cn2)cc1 | -6.35 | -7.37 | -1.32 | -5.04 | -9.58 |
| Cc1ccc(Cn2c(=O)c3ccccc3n3c(=O)n(CC(=O)c4ccc(F)cc4)nc23)cc1 | 6.45 | 1.73 | 5.89 | 5 | 8.43 |

| SMILES | activity change, negative = inhibition [1] [%] | activity change, negative = inhibition [2] [%] | activity change, negative = inhibition [3] [%] | activity change, negative = inhibition [4] [%] | activity change, negative = inhibition [5] [%] |
| --- | --- | --- | --- | --- | --- |
| C[C@H](c1ccc(F)cc1CCCC(=O)O)N(c1cc(F)ccc1F)S(=O)(=O)c1ccc(Cl)cc1 | -7.12 | 1.12 | 7.93 | -22.6 | 3.25 |
| CC(C)NC(=O)C1CCc2nnc(CNC(=O)C3CC3)n21 (configuration not stated) | -0.68 | -4 | -0.518 | -9.11 | -6.89 |
| CCn1c(=O)n(CC)c2cc(S(=O)(=O)Nc3ccc(Br)c(C)c3)ccc21 | -3.57 | 1.2 | -0.629 | -13 | -5.34 |
| CCCC1(CCC)CCC2(CCN(CCCN(CC)CC)C2)CC1 | -3.92 | 0.737 | -56.6 | -35.6 | -11.5 |
| CN1C[C@@H](NC(=O)NC2CCCCC2)C[C@H]1c1nc(-c2ccccn2)no1 | -4.69 | -8.33 | -2.45 | -9.13 | -23.4 |
| Cc1cnc(C2CC2)n1C1CCN(S(=O)(=O)c2cccc(F)c2)CC1 | -1.91 | 0 | -3.15 | 1.41 | 3.17 |
| Cc1cc(C)cc(N2C(=O)c3cc4occc4n3CC2(C)C(=O)NC2CCC(C)CC2)c1 (configuration not stated) | -6.7 | 2.73 | -4.09 | -7.18 | -2.96 |
| Cc1ccc(CNC(=O)CCCc2nnc3n4nc(-c5ccccc5)nc4c4ccccc4n23)cc1 | -6.95 | 0 | 3.77 | 11.4 | 0.438 |
| CC(=O)N1CCCN(C(=O)c2ccc3c(c2)NC(C)(CCCCc2ccccc2)CO3)CC1 (configuration not stated) | -1.09 | -0.555 | 2.72 | -6.8 | 0.678 |
| COc1cc(/C=C/C(=O)OC2CC(OC(C)=O)C(OC(C)=O)C3C2CCC2C(=O)OC(c4ccoc4)CC23C)ccc1O[C@@H]1O[C@H](CO)[C@@H](O)[C@H](O)[C@H]1O (some centres not stated) | -2.4 | -11.4 | 0.767 | -18.9 | 0.434 |
| COc1ccccc1CC(=O)N1CC[C@@H]2NC(=O)[C@H]3C[C@H](NC(=O)C4CCC4)CN3C(=O)[C@H]21 | -4.92 | -10.8 | -3.34 | -14.3 | -25.3 |
| COCCC1(N(C)C)CCN(S(=O)(=O)c2cc(OC)ccc2OC)CC1 | -4.75 | 5.08 | -3.35 | -4.57 | 0.095 |
| CCN(CC)C(=O)c1csc(-c2cccc(OC(C)C)c2)n1 | -6.9 | 0.096 | -0.653 | -3.24 | 3.38 |
| CN1CCN(c2ncnc3sc4c(c23)CCNC4)CC1 | -17.7 | -6.62 | -37.9 | -79.5 | -88.7 |
| COC(=O)[C@H]1CCCN1C(=O)[C@@H]1C[C@H](NC(=O)NC(C)C)CN1C(=O)c1cccn1C | -3.32 | -0.141 | -1.82 | -8.07 | -2.26 |
| COc1cccc(CNC(=O)CCn2ccc3cc(S(=O)(=O)N4CCCCC4)ccc32)c1 | 3.36 | 1.09 | 7.41 | 1.55 | 4 |
| Cc1ccccc1CN1C(=O)c2cc3sccc3n2CC1(C)C(=O)NC1CCCC1 (configuration not stated) | -11 | 2.37 | -12 | -14.2 | -9.06 |
| Cc1cc(C)cc(N2C(=O)CSc3c(c4ccccc4n3C)C2C(=O)NCCC(C)C)c1 (configuration not stated) | -0.431 | 0.176 | -1.85 | -6.16 | -3.41 |
| Cc1c(CO)cccc1NC(=O)c1ccc(CN2CCCC(C)C2)cc1 (configuration not stated) | -2.38 | 1.32 | -12.7 | -0.197 | 8.28 |
| CCc1ccccc1NC(=O)Cn1nc2cc(C)nc(Nc3ccc(F)cc3)n2c1=O | 11.2 | 0 | 7.03 | 0.831 | 3.85 |

| SMILES | activity change, negative = inhibition [1] [%] | activity change, negative = inhibition [2] [%] | activity change, negative = inhibition [3] [%] | activity change, negative = inhibition [4] [%] | activity change, negative = inhibition [5] [%] |
| --- | --- | --- | --- | --- | --- |
| CCCn1c(C)cnc1CC1CCN(S(=O)(=O)c2ccccc2)C1 (configuration not stated) | -3.05 | -4.43 | -28.7 | -29.8 | -21.4 |
| Fc1cc(F)c2c(c1)[C@@H]1C=CC[C@@H]1[C@H](c1ccncc1)N2 | -7.98 | 3.88 | 0.274 | -7.11 | -2.52 |
| CC(C)Cn1c(=O)c2ccc(C(=O)NC(C)C)cc2n2c(SCC(=O)c3ccc(F)cc3)nnc12 | 4.79 | 0.84 | 1.79 | 2.82 | 3.47 |
| O=C(C1CC1)N1CCC(Cc2nc(-c3ccc(F)cc3)no2)CC1 | -3.93 | 1.01 | 1.19 | -11.8 | 5.02 |
| CCc1nc2cc(N3CCC(C(=O)NCc4cccnc4)CC3)cnc2nc1CC | -9.23 | -2.64 | -4.4 | -6.39 | -6.14 |
| COc1ccc2cc3n(c2c1)CC(C)(C(=O)NC1CCCC1)N(Cc1ccccc1OC)C3=O (configuration not stated) | -3.48 | -0.584 | 1.39 | -3.32 | -2.27 |
| CCN1CCN(Cc2ccc(-c3cc4c(NC(C)c5ccccc5)ncnc4[nH]3)cc2)CC1 (configuration not stated) | -32.9 |  | -52.7 |  |  |
| Cc1cc(C)cc(NC(=O)Cn2nc3n(C)c(=O)c4ccc(C(=O)NC5CCCC5)cc4n3c2=O)c1 | 2.97 | -2.01 | -2.04 | -3.42 | -6.7 |
| CC(C)Oc1ccc(CNC(=O)CNC(=O)C2(C)Cn3c(cc4ccccc43)C(=O)N2C)cc1 (configuration not stated) | 2.98 | 0.005 | 3.24 | 12.4 | 0.744 |
| Cc1nc(C)c(C(=O)N2CCC3(CC2)CC(N(Cc2ccccc2)C2CC2)CCO3)s1 (configuration not stated) | -5.2 | 0.144 | 0.314 | -3.7 | 1.48 |
| CC1(C(=O)NC2CCCCCCC2)Cn2c(ccc2-c2ccco2)C(=O)N1Cc1cccc(F)c1 (configuration not stated) | -0.549 | 0 | 2.68 | -3.89 | 0.305 |
| Cc1ccc(Cl)cc1NC(=O)Cn1nc2n(CCCOC(C)C)c(=O)c3ccccc3n2c1=O | 6.34 | 0.678 | 9.09 | -1.42 | 6.45 |
| CCC(C)NC(=O)c1ccc2c(=O)n(C)c3nnc(SCC(=O)Nc4ccc(C)c(F)c4)n3c2c1 (configuration not stated) | 3.28 | 0 | 4.29 | -2.55 | 1.89 |
| CC1CCCC(C)N1CCCN1C(=O)c2cc3occc3n2CC1(C)C(=O)NC1CCCCCCC1 (configuration not stated) | -1.32 | 3.52 | -5.76 | -2.92 | -3.48 |
| CCC(C)NC(=O)c1ccc2c(=O)n(C)c3nn(CC(=O)Nc4ccc(F)cc4)c(=O)n3c2c1 (configuration not stated) | 5.3 | 1.23 | 6.62 | -1.46 | 6.65 |
| CCOc1ccccc1NS(=O)(=O)c1cc2[nH]c(=O)[nH]c2cc1Cl | -11.9 | 0 | -12.7 | -16.8 | -22.8 |
| CCc1ccccc1S(=O)(=O)NCCn1c(CCc2ccccc2)nc2ccccc21 | -3.85 | 4.44 | -3.52 | -6.43 | -1.72 |
| O=C(NCCc1ccccn1)C1CCCN(c2nc(-c3ccccc3)nc3c2CCC3)C1 (configuration not stated) | -12.6 | -9.62 | -7.76 | -28.1 | -10.7 |
| CC(C)NC(=O)NC[C@H]1OC[C@@H](NC2CCCC2)[C@@H]1O | -0.07 | -0.604 | 2.35 | 0.212 | -2.15 |
| CCc1cccc(C)c1NS(=O)(=O)c1ccc2c(c1)n(C)c(=O)n2C | 8.26 | 0 | 6.01 | -10.2 | 1.61 |
